# From article PMC4336329 (PLoS ONE, 2015)
# Among all 310,000 compounds or so, about 2,200 (0.71%) showed an effect of 50% or more. The effect is printed as a negative number. The list shows a part of the results.
# Target: human ether-à-go-go-related gene (hERG) potassium channel (human, UniProt Q12809)
# Assay: primary screen, population patch clamp on CHO cells stably expressing hERG
# Sequence of human ether-à-go-go-related gene (hERG) potassium channel (Q12809 whole entry, looked up): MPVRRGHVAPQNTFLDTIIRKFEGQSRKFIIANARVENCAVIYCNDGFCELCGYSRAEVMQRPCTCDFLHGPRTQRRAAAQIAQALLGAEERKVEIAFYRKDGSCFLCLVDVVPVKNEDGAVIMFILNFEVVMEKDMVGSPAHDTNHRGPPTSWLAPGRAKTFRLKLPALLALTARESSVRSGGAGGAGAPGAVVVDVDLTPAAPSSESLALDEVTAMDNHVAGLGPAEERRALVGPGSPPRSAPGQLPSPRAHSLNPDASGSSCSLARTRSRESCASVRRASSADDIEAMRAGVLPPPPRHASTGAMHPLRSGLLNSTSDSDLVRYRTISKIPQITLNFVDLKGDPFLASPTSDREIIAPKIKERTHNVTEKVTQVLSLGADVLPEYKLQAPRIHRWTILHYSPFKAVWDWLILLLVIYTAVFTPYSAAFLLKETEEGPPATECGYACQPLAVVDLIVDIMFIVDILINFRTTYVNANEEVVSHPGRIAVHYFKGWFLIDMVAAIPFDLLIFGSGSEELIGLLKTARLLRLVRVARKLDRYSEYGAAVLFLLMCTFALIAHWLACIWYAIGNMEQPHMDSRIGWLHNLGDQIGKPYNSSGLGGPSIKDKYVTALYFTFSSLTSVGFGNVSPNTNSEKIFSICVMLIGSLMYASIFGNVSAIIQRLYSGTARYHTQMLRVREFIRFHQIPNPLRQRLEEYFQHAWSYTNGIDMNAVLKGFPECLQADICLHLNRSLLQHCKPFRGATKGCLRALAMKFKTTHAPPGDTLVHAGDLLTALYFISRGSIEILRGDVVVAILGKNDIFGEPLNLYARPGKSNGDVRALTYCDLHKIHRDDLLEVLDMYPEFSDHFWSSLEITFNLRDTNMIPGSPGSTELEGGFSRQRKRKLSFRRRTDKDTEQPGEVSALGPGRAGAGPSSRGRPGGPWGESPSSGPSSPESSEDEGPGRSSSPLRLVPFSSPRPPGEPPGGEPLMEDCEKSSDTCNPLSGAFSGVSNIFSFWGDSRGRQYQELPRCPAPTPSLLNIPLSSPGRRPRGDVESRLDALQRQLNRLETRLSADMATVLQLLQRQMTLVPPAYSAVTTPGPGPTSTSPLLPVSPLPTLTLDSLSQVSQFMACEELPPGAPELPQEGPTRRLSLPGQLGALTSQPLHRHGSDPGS
row,Compound,"hERG current change (%, negative = inhibition) at 1uM [%]"
1,Cc1nnc(N2C(=O)c3ccc(Br)cc3C2=O)s1,13.7
2,CCCOc1ccc(N2C(=O)C/C(=C\c3ccccc3)C2=O)cc1,15.7
3,COc1ccc(O)c(/C=N/NC(=O)c2cccc(N3CCCC3=O)c2)c1,8.99
4,COc1ccccc1NC(=O)CN1CCN(C(=O)C2CCCO2)CC1 (centres unmarked),14.1
5,Cc1ccc(-c2noc(-c3ccccc3C(=O)NCC3CCCO3)n2)cc1 (centres unmarked),8.44
6,COc1ccccc1Oc1ccc2c(c1)C(=O)N(c1ccccc1)C2=O,1.54
7,COc1cc(S(=O)(=O)Nc2cccc(C)c2)ccc1NC(=O)c1cccnc1,17.2
8,O=C(Cn1c2[n+](c3ccc(C(F)(F)F)cc31)CCCCC2)Nc1ccc(Br)cc1.[Cl-],20.4
9,COc1ccc(C(C(=O)NC2CCCCC2)N2CCC3(CC2)OCCO3)cc1 (centres unmarked),3.92
10,O=c1[nH]cnc2c([N+](=O)[O-])cccc12,7.63
11,CC(=O)Nc1ccc(OS(=O)(=O)c2ccc(C)cc2C)cc1,5.66
12,Cc1cccc(NC(=O)C2CC(=O)OC23CCCCC3)c1 (centres unmarked),2.56
13,CC(C)CCNC(=O)CCCC1=NS(=O)(=O)c2ccccc2N1,3.78
14,Cc1cc(NC(=O)CSc2nc3cc(C(=O)NCCCOC(C)C)ccc3c(=O)n2Cc2ccco2)no1,10.4
15,Cc1ccsc1/C=C1\C(=O)NC(=S)N(C)C1=O,14.8
16,Cc1nnc(Nc2ccc3c(c2)OCO3)c2ccccc12,11.8
17,CN(C)CCNC(=O)/C(=C/c1ccc(-c2cccc(Cl)c2)o1)NC(=O)c1ccccc1,-31.4
18,CNC(=O)O/N=C(\N)Cc1csc2ccc(Cl)cc12,5.45
19,O=C(Cc1cccs1)NNC(=S)NCc1ccc(Cl)cc1,11.5
20,COC(=O)c1c(NS(=O)(=O)c2ccc3ccccc3c2)sc2c1CCCC2,1.93
21,CCN(CC)CCNC(=O)Cc1nn(Cc2ccccc2)c(=O)c2ccccc12,-9.36
22,CC(=O)Cn1nnc(-c2ccc(C(F)(F)F)cc2)n1,0.918
23,CCOc1ncccc1C(=O)OCc1cccc([N+](=O)[O-])c1,13

row,Compound,"hERG current change (%, negative = inhibition) at 1uM [%]"
1,Cc1cc(C)cc(C(=O)NCCCN2CCOCC2)c1,17.7
2,COC(=O)c1ccc(C23CC4(C2)[C@H](CN(CC2CCCCC2)[C@@H]4c2ccccc2)C3c2ccc(Cl)nc2)cc1 (some centres unmarked),15.8
3,CC(OC(=O)c1ccc2c(=O)n3c(nc2c1)CCC3)C(=O)NC1CCCCC1C (centres unmarked),13.8
4,FC(F)(F)c1nnc(-c2ccccc2)nc1Sc1ccccc1,7.7
5,Cc1c(C(=O)OC(C)C)[nH]c2c1C(=O)CC(C)(C)C2,7.48
6,CCS(=O)(=O)C1=NN2C(=N)/C(=C\c3ccc(OC(=O)c4ccco4)cc3)C(=O)N=C2S1,19.4
7,COc1ccc(C(=O)c2ccc(Cl)cc2)c2ccccc12,6.46
8,CCOCCCNC(=O)C1CCC(=O)N1CCc1ccccc1 (centres unmarked),15.8
9,CNS(=O)(=O)c1ccc(NC(=O)C(CCSC)NC(N)=O)cc1 (centres unmarked),15.1
10,C/C(=N\NS(=O)(=O)c1cccc([N+](=O)[O-])c1)c1cccnc1,7.3
11,CCOC(=O)C1=C(C)NC2=C(C(=O)CC(C)(C)C2)C1c1ccc(N(C)C)cc1 (centres unmarked),12.6
12,CC(NC(=O)c1ccco1)C(c1cccs1)N1CCN(c2ccc(F)cc2)CC1 (centres unmarked),6.94
13,CC(C)(C)n1nnnc1C(c1ccc(F)cc1)N(Cc1ccc(F)cc1)Cc1ccco1 (centres unmarked),14.4
14,O=C1NC(=S)SC1=C1CCCC1,11.8
15,CC(C)CC(=O)N=C1SC2CS(=O)(=O)CC2N1Cc1ccccc1 (centres unmarked),11.2
16,O=C(CCCSc1nc2ccccc2s1)NC1=NCCS1,10.8
17,Cl.OC(CCN1CCCC1)(c1ccccc1)C1CCCCC1 (centres unmarked),1.02
18,COc1ccc(S(=O)(=O)N2CCN(C/C=C/c3ccccc3)CC2)cc1F,8.5
19,CC(C)NC(=S)N1CCN(S(=O)(=O)c2cccc(C(F)(F)F)c2)CC1,11.7
20,CCOC(=O)N1CCC(=NNC(=O)c2ccccc2F)CC1,-1.29
21,CC1=C(C)CC(C(=O)NCc2ccccc2F)C(C(=O)O)C1 (centres unmarked),15.8
22,COc1ccc(NC(=S)N2CCN(S(C)(=O)=O)CC2)cc1OC,4.18
23,Cc1cc(S(=O)(=O)N2CCCC2)ccc1OCC(=O)N1CCC(C(N)=O)CC1,20

row,Compound,"hERG current change (%, negative = inhibition) at 1uM [%]"
1,CC(=O)O.O=c1/c(=C\c2cccc(O)c2)sc2nc(-c3ccccc3)c(-c3ccccc3)n12,13.9
2,CCOC(=O)c1c(N2C(=O)Nc3ccccc3N2O)sc2c1CCCCC2,0.728
3,CCOC(=O)c1cccc(NC(=O)CSc2nnc(C3CCCCC3)n2C)c1,1.33
4,CC(OC(=O)/C=C/c1ccccc1Cl)C(=O)NC1CCCCC1C (centres unmarked),0.403
5,O=[N+]([O-])c1cccc(S(=O)(=O)Nc2ccc(Cc3ccncc3)cc2)c1,-4.55
6,CN1CCc2nc(NC(=O)c3cccc(OC(F)F)c3)sc2C1,-1.52
7,COc1ccc(N(CC(=O)Nc2cc(OC)ccc2OC)S(=O)(=O)c2c(C)nn(C)c2C)cc1,12.7
8,O=C(c1cccc(F)c1)n1nnc2ccccc21,17.4
9,O=C(CSc1ncn[nH]1)c1ccc2c(c1)OCCO2,2.66
10,Cc1c(CCO)c(=O)n(C)n1C(=O)c1ccc(F)cc1,13.2
11,COc1ccc(C2=NO[C@H]3C[C@](C(=O)NC(C)C)(S(=O)(=O)c4ccccc4)C[C@@H]23)cc1,12
12,O=C(NNC(=S)NC(=O)c1cn(-c2ccccc2)nc1-c1ccccc1)c1ccncc1,8.41
13,O=C(CSc1nc2ccccc2[nH]1)c1ccc(Cl)s1,14.5
14,COc1ccc(Oc2ncc(CN3CCN(c4ccccc4)CC3)s2)cc1,10.3
15,C/C(Cl)=C/CN1C(=O)C2C3C=CC(C3)C2C1=O (centres unmarked),-3.44
16,COC(=O)[C@H](C)NC(=O)N1CCC(Cc2ccccc2)CC1,0.436
17,CC1CCc2cc(F)ccc2N1C(=O)c1cccnc1 (centres unmarked),19.6
18,CC(=O)N1CCC2(CC1)C(C#N)=C(N)Oc1n[nH]c(C)c12,11
19,COc1ccccc1NC(=O)CN1CCN(CC(=O)Nc2ccccc2Cl)CC1,7.43
20,COc1ccc(O)c(C(=O)c2cnn(-c3ccc(Cl)cc3)c2)c1,16
21,Cc1cc(C)nc(NS(=O)(=O)c2ccc(NC(=O)c3cc(-c4ccccc4)nc4ccccc34)cc2)n1,0.933
22,O=c1oc2ccccc2c(NC2CCCCC2)c1NS(=O)(=O)c1ccc(F)cc1,2.77
23,Cn1c(=NC(=O)C2CC2)sc2cc(F)cc(F)c21,10.1

row,Compound,"hERG current change (%, negative = inhibition) at 1uM [%]"
1,CC(C)(C)OC(=O)N1CCN(C(=O)c2[nH]cnc2C(=O)NCC(=O)OCc2ccccc2)CC1,7.21
2,Cc1ccc(CNC(=S)NC2CCC(C(C)(C)C)CC2)cc1 (centres unmarked),15.4
3,O=C1CCCN2N=C(SCC(=O)Nc3nc4ccccc4s3)SC2=N1,5.01
4,CCOC(=O)c1ccc(NC(=O)CCS(=O)(=O)c2cccc3nonc23)cc1,9.65
5,Cc1ccc(S(=O)(=O)N2CCN(Cc3nc4ccccc4n3C)CC2)cc1,-0.98
6,COCc1cnc(C)nc1N,10.4
7,O=C(c1ccc(N2CCN(CCO)CC2)nc1)N1CCOCC1,8.82
8,COc1ccc(S(=O)(=O)N2CCN(C)CC2c2ccccc2)cc1.Cl (centres unmarked),9.94
9,COC(=O)c1c(NC(=O)COC(=O)c2ccc(Cl)nc2)sc(C)c1C,15.9
10,O=C(O)C1C2C=CC(C2)C1C(=O)NCCc1cccc(Cl)c1 (centres unmarked),10.9
11,CCOC(=O)N1CCN(C(=O)c2c[nH]c3ccc(S(=O)(=O)N(C)c4ccccc4C)cc3c2=O)CC1,5.17
12,c1ccc(CSc2ccc(-c3cccnc3)nn2)cc1,1.62
13,CCCn1c(SCC(=O)NCC2CCCO2)nc2c1c(=O)n(C)c(=O)n2C (centres unmarked),6.61
14,CC1=C(OC(=O)C(C)(C)C)C(C)(C)C(c2ccccc2)OC1=O (centres unmarked),-0.619
15,Cc1ccc(-c2csc3ncn(Cc4ccc(C(=O)O)cc4)c(=O)c23)cc1C,3.85
16,N#Cc1cc2c(nc1Cl)CCC2,16.7
17,CCOC(=O)Cc1csc(N/C(=N/S(=O)(=O)c2ccc(Cl)cc2)c2ccccc2)n1,15
18,COc1ccccc1N1CCN(C(=O)c2ccc3c(c2)CCN3S(=O)(=O)c2ccccc2)CC1,14.5
19,CCOc1ccc(CN2CCN(CCCc3ccccc3)CC2CCO)cc1 (centres unmarked),-80.9
20,CC1(C)C=Cc2cc3ccc(=O)oc3cc2O1,6.91
